Experimental data reported in PubChem BioAssay AID493208 (National Center for Advancing Translational Sciences (NCATS), 2011).
About 340 (0.77%) of roughly 44,000 compounds were called active. About 5% were inconclusive and are not listed. Calls come from the whole dose curve; as a rule, active = well fitted inhibition curve with a large enough effect; inconclusive = small, poorly fitted or top-dose-only effect; inactive = flat fitted curve, though single readings scatter. This is one part of the list.

Test: Acumen qHTS Assay for Inhibitors of the mTORC1 Signaling Pathway in MEF (Tsc2-/-, p53-/-) Cells: Sytravon;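 note: plate controls were DMSO for no effect and rapamycin for full effect; nearly all actives have a fitted effect of over 50% in size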
Settings: phospho-rpS6 immunofluorescence/PI, 24 h; series mostly up to 38.3 µM; activity change, negative = inhibition: at the top concentration
Procedure, shortened: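 Cell-based qHTS: Tsc2-/- p53-/- MEF, 24 h cpd, 37 °C; fix/perm, anti-phospho-S6 Alexa-488 + PI; Acumen 488 nm scan; pS6/PI ratio, % positive cells; rapamycin 7.5 nM = inhibition ref; PI count = viability.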

Activity change, negative = inhibition, inactive:
Cc1cccn2c(=O)cc(COc3ccc(NC(=O)c4cccc(F)c4)cc3)nc12 -0.624%
CCC1CCCCN1C(=O)Cn1c(=O)n(CCCCCC(=O)NCc2ccc(F)cc2)c(=O)c2sccc21 (stereo not given) 7.44%
O=C(O)CCn1cnc2onc(-c3ccccc3Cl)c2c1=O -0.282%
O=C(NCc1ccc(Cl)cc1)c1ccc2c(c1)NC(=O)C(CS(=O)(=O)Cc1ccccc1Cl)N2 (stereo not given) 0%
CCc1cccc(NC(=O)Cn2cc(C(=O)c3ccncc3)c(=O)c3cc(C)c(C)cc32)c1 -1.29%
COc1cccc(N2C(=O)CSC23C(=O)N(CC(=O)Nc2cccc(Cl)c2)c2ccccc23)c1 (stereo not given) -6.14%
COc1cc(CN(C(=O)COc2ccccc2Cl)c2ccccn2)cc(OC)c1OC -0.28%
CCn1c(C)c(C)c2cc(C(=O)N3CCN(c4cccc(C)c4C)CC3)ccc21 -12.5%
COc1cccc(-n2c(-c3ccco3)nc3c(cnn3-c3ccc(Cl)cc3)c2=O)c1 -1.78%
COc1ccc(CC(=O)Nc2cc(-c3nc4cccnc4s3)ccc2C)cc1 2.99%
CN(C)S(=O)(=O)N(CC(=O)NCCSCc1cccc(Cl)c1)c1ccccc1 -7.09%
CCOC(=O)c1ccc(N2C(=O)c3n[nH]c(-c4cccs4)c3C2c2cccc(OC)c2)cc1 (stereo not given) -7.46%
CCOc1ccc(-n2c(=O)c3c4c(sc3n(CC(=O)NC(C)CC)c2=O)CCC4)cc1 (stereo not given) -0.218%
O=S(=O)(c1ccc(Cl)cc1)c1nnn2c1nc(NCc1cccs1)c1sccc12 -19.8%
CCC(=O)Nc1ccc2nc(SCc3ccccc3)sc2c1 -1.89%
COc1ccc(C)cc1NC(=O)CSc1nc(=O)[nH]c2c1CCCC2 -6.02%
CCC(CC)C(=O)N1CCc2cc(OC)c(OC)cc2C1COc1ccc(C(=O)OC)cc1 (stereo not given) 0.0905%
COc1ccc(-c2nnc(Nc3ccc(OC)c(C(N)=O)c3)c3ccccc23)cc1 11.4%
CCS(=O)(=O)c1nc(S(=O)(=O)c2ccc(C)cc2)c(NC(C)c2ccccc2)s1 (stereo not given) -20.1%
CCOc1ccc(-n2cc(-c3ccccc3)c3c(N4CCC(C)CC4)ncnc32)cc1 9.33%
CCOc1ccccc1NC(=O)C(=O)c1cc(C)n(-c2ccc(F)cc2)c1C -1.92%
Cc1ccc(S(=O)(=O)c2nc(-c3ccc(F)cc3)oc2SCC(=O)c2ccccc2)cc1 0.474%
CCc1ccc2oc(-c3cccc(NC(=O)C(C)(C)Oc4ccc(Br)cc4)c3)nc2c1 -5.22%
Cc1ccc(Nc2c(-c3ccc(C)cc3)nc3ccc(C)cn23)cc1 4.34%
Cc1cc(C)cc(Nc2ncnc3onc(-c4ccc(F)cc4)c23)c1 -4.79%
CCOc1ccc(CNC(=O)c2cc3c(s2)-c2ccccc2OC3)cc1 -2.03%
O=C(c1ccc2c(c1)CCCC2)N1CCN(c2nc3ccc(F)cc3s2)CC1 -0.43%
CCc1ccc(S(=O)(=O)NCc2nc3cccnc3n2Cc2ccccc2Cl)cc1 -10.5%
CCCOc1ccc(CNC(=O)Cn2cc3c(n2)-c2c(oc(C(=O)N4CCOCC4)c2C)CC3)cc1 -19.9%
COc1cc(NC(=O)NC(C)c2c(-n3cccc3)sc3c2CCN(C)C3)cc(OC)c1 (stereo not given) -1.23%
COc1cccc(-n2c(SCC(=O)N3CCCc4ccccc43)nc3c([nH]c4ccccc43)c2=O)c1 -0.135%
O=C(CCSCc1cccc(F)c1)NCc1ccccc1 5.3%
COc1ccc(Cl)cc1NC(=O)Cn1c(=O)n(CCCC(=O)NCCc2ccc(OC)c(OC)c2)c(=O)c2ccccc21 -15.6%
CCN1CCN(c2c(S(=O)(=O)c3ccc(Cl)cc3)cnc3ccccc23)CC1 -1.06%
Cc1ccc(NC(=O)Cn2c(=O)n(CCCS(=O)(=O)C3CCCCC3)c(=O)c3ccccc32)cc1F -0.266%
CC(NC(=O)c1ccc(Cn2c(=O)c3cccn3c3cccnc32)cc1)c1ccccc1 (stereo not given) 6.35%
COc1ccc(C(=O)c2oc3ccccc3c2NC(=O)COc2ccc(C)cc2)cc1 -0.352%
COc1ccc(S(=O)(=O)c2cc3cc(OC)ccc3oc2=O)cc1 6.27%
CCc1ccccc1NC(=O)N1CCc2cc(OC)c(OC)cc2C1CC(=O)OC (stereo not given) 0%
Cc1ccc(C)c(Nc2nc3c(S(=O)(=O)c4ccc(Br)cc4)nnn3c3ccsc23)c1 -8.01%
CCC1CN(S(=O)(=O)c2ccc3c(c2)NC(=O)CC(=O)N3)c2cc(Cl)ccc2O1 (stereo not given) -1.41%
Cn1c(=O)c2c(-c3ccccc3Cl)n(Cc3ccc(Cl)cc3)cc2n(C)c1=O -17%
Cc1cccc(N2CCN(C(=O)CCC(=O)NNc3nc4ccccc4c4nc(C)nn34)CC2C)c1 (stereo not given) -1.01%
COc1cc(C2c3c(-c4c(C)cc(C)cc4O)n[nH]c3C(=O)N2CCCOC(C)C)cc(OC)c1OC (stereo not given) 2.42%
CCc1ccccc1NC(=O)CN1C(=O)COc2ccc(S(=O)(=O)Nc3ccccc3)cc21 -8.09%
Cc1ccc(N2CC(c3nnc(Cc4ccccc4Cl)o3)CC2=O)cc1 (stereo not given) 6.32%
COc1ccccc1Cc1nc2ccccc2nc1SCC(=O)Nc1ccccc1C(F)(F)F 1.53%
COc1ccc(S(=O)(=O)n2nc(-c3ccco3)nc2NCc2ccc(OC)c(OC)c2)cc1 1.49%
COc1ccc(N(C(=O)c2ccc(Cl)cc2)S(=O)(=O)c2ccc(C)cc2)cc1 7.25%
COc1ccccc1N1CCN(c2cc(C)nc3c(-c4ccc(Cl)cc4)c(C)nn23)CC1 -5.28%
COCCCNc1nc2c(c(=O)n(C)c(=O)n2C)n1Cc1ccccc1 -1.98%
COCCOC(=O)C1=C(C)N=C2SCCC(=O)N2C1c1ccc(OCc2ccccc2)c(OC)c1 (stereo not given) 0.186%
CN(C)c1ccc(CNC(=O)CCn2c(=O)c3cccn3c3ccc(F)cc32)cc1 5.13%
COc1cccc(-c2[nH]c3c(c2-c2c(-n4cccc4)n(C)c(=O)[nH]c2=O)c(=O)[nH]c(=O)n3C)c1 -2.19%
COCCNC(=O)CCSc1nc(-c2ccc3c(c2)OCO3)cc(C(F)(F)F)n1 0.491%
CCc1nnc2c(NCc3cccc(OC)c3)nc3ccccc3n12 -0.423%
CCOc1ccccc1C(=O)Nc1nnc(COC)s1 -2.54%
Cc1ccc(C(=O)N2CCc3cc(CNC(=O)c4ccnn4C)ccc32)cc1 -13.5%
CCN(CC)S(=O)(=O)c1ccc2c(c1)c(=O)c(C(=O)NCc1ccccc1OC)cn2C -1.85%
Cc1ccc(NS(=O)(=O)c2ccc3c(c2)NC(=O)CCS3)cc1F -4.91%
